Reference: publication PMC12136788
This is one part of the list.

T1: UNK ZnF1-6 (called full-length) (human, UniProt Q9C0B0 30-357)
T1 sequence: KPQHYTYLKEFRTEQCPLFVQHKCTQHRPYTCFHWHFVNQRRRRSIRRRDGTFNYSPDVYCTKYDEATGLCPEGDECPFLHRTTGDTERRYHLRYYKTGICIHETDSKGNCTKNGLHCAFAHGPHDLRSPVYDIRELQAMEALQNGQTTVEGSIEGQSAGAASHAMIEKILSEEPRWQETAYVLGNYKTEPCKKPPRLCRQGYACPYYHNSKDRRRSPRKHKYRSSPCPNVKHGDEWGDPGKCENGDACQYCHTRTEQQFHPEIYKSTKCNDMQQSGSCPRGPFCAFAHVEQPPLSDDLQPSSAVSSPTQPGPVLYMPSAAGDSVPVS

B1: chr2:169127108:169128830:-|three_prime_utr|ENSG00000081479|control|control|control (ssRNA)
RNA: GGGAGUUCUACAGUCCGACGAUCCUGCAACAGAAGACACUUUUAAAGACACCGCAAAUCUUGUUAAAGAAGACUCUGAAGUAUAGCUAUACCAGCUAUUUAGGGAAUAAUUAGAAACACACUUUUGCACAUAUAUUUUUUACACAACAGAGGAUUGAGCAUCA
B2: ENSG00000070961:be:win_2001|CDS|ENSG00000070961|bound_else_gene|NA|bound_elsewhere_windowed (ssRNA)
RNA: GGGAGUUCUACAGUCCGACGAUCAAAUGAUAUUGUCACCGGCCUUACAUGCAUUGCUGUUGUGGGGAUUGAAGAUCCUGUGAGACCUGAGGUGCCAGAUGCAAUUAAAAAGUGUCAGAGGGCUGGAAUUACUGUGCGGAUGGUCAACAGAGGAUUGAGCAUCA
B3: ENSG00000144554:stop:overlap|stop_codon|ENSG00000144554|stop_codon|NA|stop_codon (ssRNA)
RNA: GGGAGUUCUACAGUCCGACGAUCACGAAGUAAGUGCUGGAGAAAAGGAGCAAGAUAGUGAUGAGAGUUAUGAUGACUCUGAUUAGACCCCAGAUAAAUUGUUGCCUGCUUCUGUGUCUCUGCCAGCCUGUGAUCAUUUUGUGUCAACAGAGGAUUGAGCAUCA
B4: ENSG00000107863:be:win_651|CDS|ENSG00000107863|bound_else_gene|NA|bound_elsewhere_windowed (ssRNA)
RNA: GGGAGUUCUACAGUCCGACGAUCAGUUGAAAUAUCUCCUCCUGACUCAUCAUUGAGCAAACAGCAAACCAGUACACCAGUACUGACACAACCUGGUAGGGCCUAUAGAAUGGAAAUACAAGUGCCUCCAUCACCAACAGAUGUCAACAGAGGAUUGAGCAUCA
B5: chr2:110123602:110123703:-|3pUTR|ENSG00000144061|unk|total|mutant (ssRNA)
RNA: GGGAGUUCUACAGUCCGACGAUCAUCCUCCACGAUUACGUGAAUAAAAUGAUGGAACCAAAAAUCACUGUCACUUUACAACUCCGGUUUUACUCUUUUCUUUCUACAGACCAUAUUUUUAAAGAAAUGUUUAUACAAUAAUUUCAACAGAGGAUUGAGCAUCA
B6: chrX:115010634:115010735:-|CDS|ENSG00000123496|msi1|total|mutant (ssRNA)
RNA: GGGAGUUCUACAGUCCGACGAUCUGGAUCAUCAGAGAACAAGCCUAUCAGAUCCAGUUAUUUCACUUUUCAGCUUCAAAAUACCGGUGAUGUAAACCAACAAACAACUUCAAAUUCAUUGUUUCCCGUUCCGGCCAUUUACAACAACAGAGGAUUGAGCAUCA
B7: chr18:68676332:68676434:-|3pUTR|ENSG00000166479|msi1_unk|FALSE|overlapping (ssRNA)
RNA: GGGAGUUCUACAGUCCGACGAUCAUCAAGAUUAUGAGGUUAAAAAUAAUGUGGUUUUAUAUAGCAUAGUGGUUUUAUUUUGUUAGUUAUUUUUAAAGGAGAAGAAAUGUUACUUUUUAACUUUAUACUCAGUUGCAUUAUCAUCAACAGAGGAUUGAGCAUCA
B8: ENSG00000198589:be:win_1551|CDS|ENSG00000198589|bound_else_gene|NA|bound_elsewhere_windowed (ssRNA)
RNA: GGGAGUUCUACAGUCCGACGAUCACAGAUGCUUGCCUGUAAGGGCUUCUUGGUAAUAGGAUAUAGCCUUGAAAAGUCUUCCAAAUCUCAUGUUAGCAGAGCAGUACUUGAACUUUGCCUUGCAUUUUCAAAAUAUCUGAGUAACAACAGAGGAUUGAGCAUCA
B9: chr5:144162273:144162391:-|CDS|ENSG00000145817|unk|total|mutant (ssRNA)
RNA: GGGAGUUCUACAGUCCGACGAUCCCCACCGGCUGGCAAAAUCCAGUUUGGCUAUGUAUACGGGAUCAGUGCAAUUGGAUGUCCCGGAAUGUUUUGUUUAUUAAACUUAAUGAGUAUGACAGGUGUUUCAUUUGGUUGUGUGGCCAACAGAGGAUUGAGCAUCA
B10: chr20:38493008:38493109:+|CDS|ENSG00000170471|unk|FALSE|unique (ssRNA)
RNA: GGGAGUUCUACAGUCCGACGAUCAUUGGAUGGAGAGACUGUAAAAUAUUGCGUUGAUGUAUAUACAGACUGGAUUAUGGCUUUAGUGUUGCCAAAAGAUUCUAUUCCAUUGCCAGUUAUUAAAGAGCCUAAUCAAUAUGUUCACAACAGAGGAUUGAGCAUCA
B11: ENSG00000115904:stop:overlap|stop_codon|ENSG00000115904|stop_codon|NA|stop_codon (ssRNA)
RNA: GGGAGUUCUACAGUCCGACGAUCUUUUGCAACGAAUGGAAGAAUUUAUUGGAACAGUAAGAGAGCUGUACAGCCAUCAGAAUUAGUUGGAAGUGUGUGGACAAAAGAAGACAAAGAAAUUAACUCUCCUAAUCUUCUGAAAAUCAACAGAGGAUUGAGCAUCA
B12: chr13:75481370:75481471:-|CDS|ENSG00000136111|msi1|FALSE|unique (ssRNA)
RNA: GGGAGUUCUACAGUCCGACGAUCCUCAGCGCGCCCUUCCUGCGUUGCGUCCCCGCGCCGGGCGCUGGGGCCUCGGGGGGCACUAGUCCGUCGGCCACGCAGCCCAACCCGGCGGUAUUCAUCUUCGAGCACAAGGCGCAGCAUCAACAGAGGAUUGAGCAUCA
B13: chr12:123586815:123586897:+|5pUTR_CDS|ENSG00000086598|msi1_unk|total|mutant (ssRNA)
RNA: GGGAGUUCUACAGUCCGACGAUCGAAUCCAGUGGGAAAUACACAUUUGCUGCUCACAUGGAUGGAACAUACAAAUUUUGUUUCCGUAACCGGAUGUCCACCAUGACUCCAAAAACCGUGAUGUUCACCAUUGAUAUUGGGGAGCAACAGAGGAUUGAGCAUCA
B14: ENSG00000198589:be:win_5601|CDS|ENSG00000198589|bound_else_gene|NA|bound_elsewhere_windowed (ssRNA)
RNA: GGGAGUUCUACAGUCCGACGAUCGAAGAAUGCAGGCCUUGCUUUUAUCGAACUUGUCAAUGAAGGAAGGUUGCUUAGCCAGACAAUGAAGGAUCAUCUAGUAAGAGUAGCAAAUGAAGCUGAAUUUAUCCUGAGCAGGCAGAGCAACAGAGGAUUGAGCAUCA
B15: chr6:105100707:105100870:-|3pUTR|ENSG00000112276|msi1|total|mutant (ssRNA)
RNA: GGGAGUUCUACAGUCCGACGAUCUGAGAUAUAUAUUUUCACAGUCUUUUCCCGAUAUAUUAUUGUUUUAACUUAACAAAUCUCCGCAAUCUCUCAAUGCCUUUUCACUUAUUUUUUUCCAAGUUAUGAUUCUUUUUCCUCACACAACAGAGGAUUGAGCAUCA
B16: chr6:25850458:25850620:-|CDS|ENSG00000124564|control|control|control (ssRNA)
RNA: GGGAGUUCUACAGUCCGACGAUCCUCAGAUCUCUACCCAUUUGGUCCAUAUGUUUAGGCUGUUUCAGCCAUCAAUGGUUAGUUAGCACAAUGGUUGUAUACAUACCAACUUACAUCAGCUCUGUGUACCAUGUUAACAUCAGACAACAGAGGAUUGAGCAUCA
B17: chr1:119801171:119802827:-|three_prime_utr|ENSG00000134193|control|control|control (ssRNA)
RNA: GGGAGUUCUACAGUCCGACGAUCAAUUCACAGAAAGGAUAAUGGAGUUUCUGUACAAGAUUUACCAGAAAGAGAGUGGUGUGUAGACAUGCCUGGAGCAGACACCUUGGAGCCGCUGACAGAAGGUGAAGCAGUCCAAGAAAACAACAGAGGAUUGAGCAUCA
B18: chr21:43756582:43756683:+|3pUTR|ENSG00000160209|msi1|FALSE|unique (ssRNA)
RNA: GGGAGUUCUACAGUCCGACGAUCGCAUUCGAACUUUUGGUUCUUACUUUGCUGCUCGUUUAGUCCCUGGGGAUUUCAGAUCUUAGGCUGUUGUUUCACCGUAUGGGAGGGUUGAUGUGAGCUUGCUUGGAGACACACGGUGCACAACAGAGGAUUGAGCAUCA
B19: ENSG00000198589:be:win_5751|CDS|ENSG00000198589|bound_else_gene|NA|bound_elsewhere_windowed (ssRNA)
RNA: GGGAGUUCUACAGUCCGACGAUCUGAGUCACUGUGUGCCCAGUAUUCUGCAGACAAACGAGAAGAUGAGAAGAUGUGUGAUCAUUUGAUAAGAGCAGCAAAAUAUCGUGACCACGUGACAGCAACUCAACUAAUCCAGAAAAUCAACAGAGGAUUGAGCAUCA
B20: ENSG00000149428:stop:overlap|stop_codon|ENSG00000149428|stop_codon|NA|stop_codon (ssRNA)
RNA: GGGAGUUCUACAGUCCGACGAUCGCUCCUGCAGUUCUCACCUGAGGAAGUGUUGGGCAUGGUUCUCAAUUAUUCUCGUUCUCUAGCUGAAGAUUUUGCAGAGCAGCCCAUCAAGGAUGCAGUGAUCACCGUGCCAGUCUUCUUCAACAGAGGAUUGAGCAUCA
B21: chr13:30205178:30205279:-|3pUTR|ENSG00000102781|msi1|FALSE|bound_elsewhere (ssRNA)
RNA: GGGAGUUCUACAGUCCGACGAUCUUGGCAGUUUCUCUAACGACUCUGUAUAGCUUCUGGCUUCUACUACUGAAACAAGAGUUUAGAUCACUGAUGGAGAGGCAUAGUAAUCUGUUUGUGCUUUGGAAAAAUAUAUAAAAGUUUCAACAGAGGAUUGAGCAUCA
B22: ENSG00000011677:stop:overlap|stop_codon|ENSG00000011677|stop_codon|NA|stop_codon (ssRNA)
RNA: GGGAGUUCUACAGUCCGACGAUCUCUAUUGGGCCACAUAUGUCAACCGGGAGUCAGCUAUCAAGGGCAUGAUCCGCAAACAGUAGAUAGUGGUGGCAGUGCAGCAACCAGAGCACUGUAUACCCCGUGAAGCAUCCAGGCACCCAACAGAGGAUUGAGCAUCA

Each binder was assayed against T1, UNK ZnF1-6 (called full-length) (assay: nsRBNS (natural sequence RNA bind-n-seq); RBNS binding buffer (assumed for nsRBNS): 25 mM Tris pH 7.5, 150 mM KCl, 3 mM MgCl2, 0.01% Triton X-100, 500 ug/ml BSA, 20 U/ml SUPERase-In, 4 C; UNK is unkempt and MSI1 is Musashi-1; names of the RNAs are library labels; protein concentration not given here; high values mean tight binding).
B1 gave a binding signal of 10 enrichment R. In the case of B2, the binding signal is reported as 0.643 enrichment R. With B3 the binding signal was 0.553 enrichment R. In the case of B4, the binding signal is reported as 0.54 enrichment R. With B5 the binding signal was 1.11 enrichment R. In the case of B6, the binding signal is reported as 0.399 enrichment R. Work on B7 yielded a binding signal of 48.4 enrichment R. B8 gave a binding signal of 0.506 enrichment R. In the case of B9, the binding signal is reported as 0.596 enrichment R. B10 gave a binding signal of 0.5 enrichment R. B11 gave a binding signal of 1.76 enrichment R. With B12 the binding signal was 0.5 enrichment R. Work on B13 yielded a binding signal of 0.4 enrichment R. With B14 the binding signal was 1 enrichment R. Work on B15 yielded a binding signal of 3.08 enrichment R. B16 showed a binding signal of 0.347 enrichment R. B17 showed a binding signal of 0.627 enrichment R. B18 gave a binding signal of 0.894 enrichment R. B19 showed a binding signal of 0.384 enrichment R. With B20 the binding signal was 1.02 enrichment R. Binder B21 has a binding signal of 1.89 enrichment R. Work on B22 yielded a binding signal of 0.896 enrichment R.
